# According to the supplement of paper PMC10369915:
# This is one part of the list. Rule as the data show it: active = 3.2 or more and inactive = the rest. The signal is at background level for most entries.
# B1: HSPB1_Y133_R136W (peptide)
# chain: QDEHGYISWCF
# B2: HTR1A_Y215 (peptide)
# chain: LMLVLYGRIFR
# B3: HYDIN_Y4610 (peptide)
# chain: KNILCYIQGGS
# B4: IARS2_Y231_YF (peptide)
# chain: TFFQMYDKGLV
# B5: IDH1_Y135 (peptide)
# chain: IGRHAYGDQYR
# B6: IDH1_Y135_R132G (peptide)
# chain: IGGHAYGDQYR
# B7: IDH1_Y135_R132G_YF (peptide)
# chain: IGGHAYGDQFR
# B8: IDH3B_Y171_Q166H (peptide)
# chain: HTEGEYSSLEH
# B9: IDS_Y225_P228T (peptide)
# chain: FLAVGYHKTHI
# Biological target: SHP2 C-SH2 domain E139D
# Assay: enrichment score (SH2-bound / input frequency) (ratio); bacterial display of known human phosphotyrosine sites (pTyr-Var adds point mutants) read by sequencing; higher = stronger binding; tyrosines were phosphorylated by kinases first
# Settings: peptide library: pTyr-Var
# 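Also: displayed peptides selected on beads carrying the immobilized SH2 domain, with library peptides lacking any tyrosine serving as negative controls.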
row,Binder,enrichment score
1,B1,inactive: 0.557
2,B2,inactive: 1.3
3,B3,inactive: 0.849
4,B4,inactive: 1.41
5,B5,inactive: 0.966
6,B6,inactive: 0.669
7,B7,inactive: 0.855
8,B8,inactive: 0.387
9,B9,active: 3.26

# Biological target: SHP2 C-SH2 domain wild-type
# Assay: as above
# Settings: peptide library: pTyr-Var
row,Binder,enrichment score
1,B1,inactive: 0.793
2,B2,inactive: 1.23
3,B3,inactive: 1.19
4,B4,inactive: 1.33
5,B5,inactive: 0.909
6,B6,inactive: 0.555
7,B7,inactive: 0.865
8,B8,inactive: 0.394
9,B9,inactive: 3.17

# Biological target: SHP2 N-SH2 domain L43F
# Assay: as above
# Settings: peptide library: pTyr-Var
row,Binder,enrichment score
1,B1,inactive: 0.694
2,B2,inactive: 1.32
3,B3,inactive: 0.824
4,B4,inactive: 1.01
5,B5,inactive: 0.836
6,B6,inactive: 0.704
7,B7,inactive: 0.68
8,B8,inactive: 0.359
9,B9,inactive: 2.3

# Biological target: SHP2 N-SH2 domain T42A
# Assay: as above
# Settings: peptide library: pTyr-Var
row,Binder,enrichment score
1,B1,inactive: 0.605
2,B2,inactive: 1.02
3,B3,inactive: 0.62
4,B4,inactive: 1.08
5,B5,inactive: 0.716
6,B6,inactive: 0.525
7,B7,inactive: 0.795
8,B8,inactive: 0.31
9,B9,inactive: 2.04

# Biological target: SHP2 N-SH2 domain T52S
# Assay: as above
# Settings: peptide library: pTyr-Var
row,Binder,enrichment score
1,B1,inactive: 0.657
2,B2,inactive: 1.47
3,B3,inactive: 0.732
4,B4,inactive: 1.27
5,B5,inactive: 0.897
6,B6,inactive: 0.729
7,B7,inactive: 0.599
8,B8,inactive: 0.306
9,B9,inactive: 2.89

# Biological target: SHP2 N-SH2 domain wild-type
# Assay: as above
# Settings: peptide library: pTyr-Var
row,Binder,enrichment score
1,B1,inactive: 1.4
2,B2,inactive: 0.855
3,B3,inactive: 0.998
4,B4,inactive: 1.01
5,B5,inactive: 0.953
6,B6,inactive: 0.719
7,B7,inactive: 0.99
8,B8,inactive: 0.397
9,B9,inactive: 2.7
